Measurements taken from publication PMC9741505.
Residue numbers refer to the chain shown, from its start. Like-named read-outs stand apart in the source and are kept apart here. Results are given in words; binding and its absence hold for the method and conditions named. For some of these results: In cells and extracts the contact can be indirect. Some results given as binding are weak or reduced against the parent protein; the word gives no strength. For some of these results: Where a sequence is shown, tags or fusion partners need not be part of it. Blank lines part the entries; values can stand above or below the molecule they belong to.

By UniProt entry, the sequences of proteins in these tests, tags left out. Residues count along the entry.
UniProt Q9BXM7, residues 78-581: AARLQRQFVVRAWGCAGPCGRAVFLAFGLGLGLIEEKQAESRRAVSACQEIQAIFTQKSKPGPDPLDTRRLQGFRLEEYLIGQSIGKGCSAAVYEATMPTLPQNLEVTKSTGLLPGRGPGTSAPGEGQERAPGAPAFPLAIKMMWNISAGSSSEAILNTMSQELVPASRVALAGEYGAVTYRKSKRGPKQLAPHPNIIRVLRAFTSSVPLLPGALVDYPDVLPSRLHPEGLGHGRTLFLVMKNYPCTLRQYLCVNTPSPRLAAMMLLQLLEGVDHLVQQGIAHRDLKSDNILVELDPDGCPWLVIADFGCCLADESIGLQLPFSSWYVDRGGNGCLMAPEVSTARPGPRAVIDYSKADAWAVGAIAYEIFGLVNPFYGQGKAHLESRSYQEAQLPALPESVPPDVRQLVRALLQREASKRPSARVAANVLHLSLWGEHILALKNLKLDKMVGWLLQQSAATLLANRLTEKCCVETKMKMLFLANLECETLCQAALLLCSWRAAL
UniProt P00722: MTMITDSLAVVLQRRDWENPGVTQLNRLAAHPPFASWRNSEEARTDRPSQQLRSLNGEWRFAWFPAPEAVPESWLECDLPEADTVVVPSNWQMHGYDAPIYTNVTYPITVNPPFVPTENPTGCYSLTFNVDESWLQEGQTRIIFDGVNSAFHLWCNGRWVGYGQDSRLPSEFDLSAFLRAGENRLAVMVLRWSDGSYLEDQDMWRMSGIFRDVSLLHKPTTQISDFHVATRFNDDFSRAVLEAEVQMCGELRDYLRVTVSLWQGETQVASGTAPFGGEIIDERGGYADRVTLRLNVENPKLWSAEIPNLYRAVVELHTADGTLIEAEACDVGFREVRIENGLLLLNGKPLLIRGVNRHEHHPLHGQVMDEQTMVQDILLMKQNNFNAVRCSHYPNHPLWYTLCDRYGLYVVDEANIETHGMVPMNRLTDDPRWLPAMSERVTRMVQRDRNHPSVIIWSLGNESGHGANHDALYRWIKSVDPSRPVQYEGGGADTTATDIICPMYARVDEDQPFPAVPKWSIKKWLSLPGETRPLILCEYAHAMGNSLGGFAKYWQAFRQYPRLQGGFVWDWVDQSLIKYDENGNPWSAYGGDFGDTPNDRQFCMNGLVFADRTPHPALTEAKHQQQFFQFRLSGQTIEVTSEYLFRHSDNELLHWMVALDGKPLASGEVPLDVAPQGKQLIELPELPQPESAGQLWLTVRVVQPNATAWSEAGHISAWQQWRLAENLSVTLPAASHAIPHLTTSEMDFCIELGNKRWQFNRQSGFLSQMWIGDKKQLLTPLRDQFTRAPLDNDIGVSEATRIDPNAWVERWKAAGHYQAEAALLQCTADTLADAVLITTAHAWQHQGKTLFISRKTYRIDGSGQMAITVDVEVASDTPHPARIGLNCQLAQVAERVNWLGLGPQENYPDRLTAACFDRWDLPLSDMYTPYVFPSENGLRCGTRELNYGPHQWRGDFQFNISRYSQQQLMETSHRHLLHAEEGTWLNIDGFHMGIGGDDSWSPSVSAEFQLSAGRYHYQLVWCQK
UniProt B5DFG1, residues 78-580: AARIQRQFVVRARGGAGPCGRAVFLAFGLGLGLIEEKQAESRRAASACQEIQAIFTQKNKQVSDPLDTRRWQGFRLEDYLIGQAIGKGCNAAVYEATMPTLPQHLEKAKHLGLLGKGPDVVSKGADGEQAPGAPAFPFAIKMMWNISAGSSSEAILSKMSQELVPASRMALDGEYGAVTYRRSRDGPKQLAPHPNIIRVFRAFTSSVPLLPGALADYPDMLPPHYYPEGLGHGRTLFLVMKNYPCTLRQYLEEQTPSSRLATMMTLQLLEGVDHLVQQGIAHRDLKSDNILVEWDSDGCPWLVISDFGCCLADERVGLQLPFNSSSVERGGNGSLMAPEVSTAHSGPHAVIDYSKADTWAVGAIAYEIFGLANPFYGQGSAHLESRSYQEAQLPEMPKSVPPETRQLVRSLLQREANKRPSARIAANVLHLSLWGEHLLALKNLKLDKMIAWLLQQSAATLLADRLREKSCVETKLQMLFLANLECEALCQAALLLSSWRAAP

What was measured:
[1] = target: PINK1, HA-tagged, expressed in N2a cells (UniProt Q9BXM7); experiment: co-IP; transfected N2a cell lysates; immunoprecipitation with anti-HA (PINK1), partner detected with anti-myc
[2] = target: PINK1, HA-tagged, expressed in HEK293 cells (UniProt Q9BXM7); experiment: co-IP; transfected HEK293 cell lysates; immunoprecipitation with anti-HA (PINK1), partner detected with anti-myc
[3] = target: T1, SIAH1, myc-tagged, expressed in HEK293 cells (UniProt Q8IUQ4); experiment: co-IP; reverse assay; immunoprecipitation with anti-myc (SIAH1 or LacZ), PINK1 detected with anti-PINK1
T1 sequence: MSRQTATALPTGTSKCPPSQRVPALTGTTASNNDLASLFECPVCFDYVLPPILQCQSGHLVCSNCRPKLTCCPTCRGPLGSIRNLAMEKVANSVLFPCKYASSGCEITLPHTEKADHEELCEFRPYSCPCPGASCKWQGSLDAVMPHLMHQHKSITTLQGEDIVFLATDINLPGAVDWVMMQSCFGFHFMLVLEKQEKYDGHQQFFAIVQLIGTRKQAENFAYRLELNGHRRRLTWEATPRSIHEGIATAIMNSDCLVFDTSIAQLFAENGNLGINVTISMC

[4] = target: LacZ, myc-tagged (control) [β-galactosidase: P00722]; experiment: as above
[5] = target: T2, SIAH3, myc-tagged, expressed in HEK293 cells (UniProt Q8IW03); experiment: co-IP; transfected HEK293 cell lysates; immunoprecipitation with anti-myc (SIAH3), PINK1 detected with anti-Flag
T2 sequence: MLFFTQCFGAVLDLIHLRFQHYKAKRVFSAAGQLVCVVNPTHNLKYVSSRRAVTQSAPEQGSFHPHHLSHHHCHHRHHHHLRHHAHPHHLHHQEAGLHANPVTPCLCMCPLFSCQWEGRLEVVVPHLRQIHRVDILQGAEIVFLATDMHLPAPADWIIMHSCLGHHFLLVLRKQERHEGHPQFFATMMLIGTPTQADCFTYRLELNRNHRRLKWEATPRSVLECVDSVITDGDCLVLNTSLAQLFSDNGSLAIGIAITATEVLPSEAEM

[6] = target: T3, SIAH3 as used in Figure S4a (UniProt Q8IW03); experiment: co-IP; Figure S4a; legend and methods not shown
T3 sequence: T2 sequence

[7] = target: His-PINK1, recombinant purified (UniProt Q9BXM7); experiment: pull-down; in vitro binding with purified proteins only; purified GST-proteins incubated with His-PINK1 or His alone, binding detected with anti-GST; both purified
[8] = target: PINK1, HA-tagged, expressed in HEK293 cells (UniProt Q9BXM7); experiment: co-IP; transfected HEK293 cell lysates; immunoprecipitation with anti-HA (PINK1), partner detected with anti-myc; remark: listed apart in the source
[9] = target: Endogenous PINK1 of rat brain (rat (endogenous in brain)) (UniProt B5DFG1); experiment: co-IP; endogenous proteins, rat brains; immunoprecipitation with anti-PINK1, SIAH1 detected with anti-SIAH1; IgG as control
[10] = target: PINK1, HA-tagged, expressed in N2a cells (UniProt Q9BXM7); experiment: co-IP; transfected N2a cell lysates; immunoprecipitation with anti-HA (PINK1), partner detected with anti-myc; remark: listed apart in the source

- binding [1]: no binding
Molecule: FKBP12, myc-tagged (control), expressed in N2a cells (from UniProt P62942 1-108)

- binding [2]: no binding
Molecule: LacZ, myc-tagged (control) (from UniProt P00722 1-1024)

- binding [3]: binds
- binding [4]: no binding
Molecule: PINK1, HA-tagged, expressed in HEK293 cells (from UniProt Q9BXM7 78-581)

- binding [5]: binds
Molecule: PINK1 wild-type, Flag-tagged, expressed in HEK293 cells (from UniProt Q9BXM7 78-581)

- binding [6]: binds
B1: SIAH2 (enzyme, UniProt O43255 1-324)
chain: MSRPSSTGPSANKPCSKQPPPQPQHTPSPAAPPAAATISAAGPGSSAVPAAAAVISGPGGGGGAGPVSPQHHELTSLFECPVCFDYVLPPILQCQAGHLVCNQCRQKLSCCPTCRGALTPSIRNLAMEKVASAVLFPCKYATTGCSLTLHHTEKPEHEDICEYRPYSCPCPGASCKWQGSLEAVMSHLMHAHKSITTLQGEDIVFLATDINLPGAVDWVMMQSCFGHHFMLVLEKQEKYEGHQQFFAIVLLIGTRKQAENFAYRLELNGNRRRLTWEATPRSIHDGVAAAIMNSDCLVFDTAIAHLFADNGNLGINVTISTCCP

- binding [7]: binds
B2: GST-SIAH1, recombinant purified (enzyme, UniProt Q8IUQ4 1-282)
chain: T1 sequence

- binding [8]: binds
B3: SIAH1, myc-tagged, expressed in HEK293 cells (enzyme, UniProt Q8IUQ4 1-282)
chain: T1 sequence

- binding [6]: binds
B4: SIAH1 as used in Figures S3f and S4a (enzyme, UniProt Q8IUQ4 1-282)
chain: T1 sequence

- binding [9]: binds
B5: Endogenous SIAH1 of rat brain (enzyme, UniProt Q920M9 1-282)
chain: T1 sequence with D116E

- binding [8]: binds
B6: SIAH3, myc-tagged, expressed in HEK293 cells (protein, UniProt Q8IW03 1-269)
chain: T2 sequence

- binding [10]: binds
B7: SIAH3, myc-tagged, expressed in N2a cells (protein, UniProt Q8IW03 1-269)
chain: T2 sequence

- binding [7]: binds
B8: GST-SIAH3, recombinant purified (protein, UniProt Q8IW03 1-269)
chain: T2 sequence
